Results as given in patent publication US5482964A, “Substituted phenoxyhydroxypropyl amines as central nervous system agents” (Warner-Lambert Company, priority 1994, dated 1996).

Target: rat brain IIA Na+ channel (Rattus norvegicus, UniProt P04775)
Experiment: cell-based

Sequence of UniProt P04775 (P04775 whole entry): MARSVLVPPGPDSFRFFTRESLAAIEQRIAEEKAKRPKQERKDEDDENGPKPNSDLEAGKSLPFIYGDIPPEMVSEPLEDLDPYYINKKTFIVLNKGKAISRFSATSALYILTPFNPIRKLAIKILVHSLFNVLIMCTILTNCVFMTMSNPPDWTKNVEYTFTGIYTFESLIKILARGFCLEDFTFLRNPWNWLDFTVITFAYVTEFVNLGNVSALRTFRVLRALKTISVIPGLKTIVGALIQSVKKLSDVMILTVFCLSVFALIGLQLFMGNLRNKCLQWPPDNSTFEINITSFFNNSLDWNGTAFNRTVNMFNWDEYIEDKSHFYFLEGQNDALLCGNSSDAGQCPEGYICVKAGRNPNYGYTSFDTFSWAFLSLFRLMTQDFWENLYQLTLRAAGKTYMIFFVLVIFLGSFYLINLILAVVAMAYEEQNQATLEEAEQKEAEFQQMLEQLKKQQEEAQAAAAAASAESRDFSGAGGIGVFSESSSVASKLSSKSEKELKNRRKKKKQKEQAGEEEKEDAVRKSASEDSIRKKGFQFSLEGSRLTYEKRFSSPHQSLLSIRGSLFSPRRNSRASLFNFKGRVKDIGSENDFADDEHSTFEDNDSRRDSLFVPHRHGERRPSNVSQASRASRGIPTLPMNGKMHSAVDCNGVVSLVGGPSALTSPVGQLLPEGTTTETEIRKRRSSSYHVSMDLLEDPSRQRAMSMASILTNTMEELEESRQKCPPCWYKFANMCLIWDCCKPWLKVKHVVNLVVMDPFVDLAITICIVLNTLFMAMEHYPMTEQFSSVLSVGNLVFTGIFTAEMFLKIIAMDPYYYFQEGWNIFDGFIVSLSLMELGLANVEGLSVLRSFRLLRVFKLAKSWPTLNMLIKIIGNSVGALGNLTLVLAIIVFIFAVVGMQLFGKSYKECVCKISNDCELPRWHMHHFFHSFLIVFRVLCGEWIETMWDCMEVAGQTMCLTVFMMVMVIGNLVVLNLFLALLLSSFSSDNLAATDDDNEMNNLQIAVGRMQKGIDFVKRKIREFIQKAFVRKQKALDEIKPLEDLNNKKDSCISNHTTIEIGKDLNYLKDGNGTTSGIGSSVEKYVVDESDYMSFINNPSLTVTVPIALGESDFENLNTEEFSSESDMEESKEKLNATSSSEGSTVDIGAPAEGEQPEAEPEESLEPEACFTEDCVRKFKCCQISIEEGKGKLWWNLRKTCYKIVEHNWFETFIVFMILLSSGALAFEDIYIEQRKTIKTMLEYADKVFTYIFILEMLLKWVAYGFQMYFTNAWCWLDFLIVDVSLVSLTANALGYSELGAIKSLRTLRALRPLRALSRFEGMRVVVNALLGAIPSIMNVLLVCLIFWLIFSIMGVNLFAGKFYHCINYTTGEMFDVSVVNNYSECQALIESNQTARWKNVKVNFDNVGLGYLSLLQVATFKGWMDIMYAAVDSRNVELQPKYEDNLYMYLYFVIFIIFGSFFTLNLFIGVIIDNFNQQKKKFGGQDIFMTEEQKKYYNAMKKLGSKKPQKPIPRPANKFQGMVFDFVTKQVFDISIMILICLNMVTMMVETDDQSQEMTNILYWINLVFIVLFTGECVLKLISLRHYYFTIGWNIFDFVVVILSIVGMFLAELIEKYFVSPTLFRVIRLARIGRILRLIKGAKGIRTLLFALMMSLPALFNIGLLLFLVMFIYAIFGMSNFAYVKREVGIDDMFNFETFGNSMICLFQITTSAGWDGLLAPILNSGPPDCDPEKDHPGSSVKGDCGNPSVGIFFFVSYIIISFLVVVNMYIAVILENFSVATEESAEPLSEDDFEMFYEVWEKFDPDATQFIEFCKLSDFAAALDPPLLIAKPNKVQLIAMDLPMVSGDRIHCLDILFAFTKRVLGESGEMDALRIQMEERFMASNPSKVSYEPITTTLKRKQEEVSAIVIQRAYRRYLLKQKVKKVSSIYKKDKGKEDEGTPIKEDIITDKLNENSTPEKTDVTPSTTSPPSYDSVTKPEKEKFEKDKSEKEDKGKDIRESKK

| Structure (SMILES) | IC50 [µM] |
| --- | --- |
| COc1ccc(CCN(Cc2ccccc2)CC(O)COc2cccc(C)c2)cc1OC (stereo not drawn) [Example 2, 1-{Benzyl-[2-(3,4-dimethoxyphenyl)-ethyl]amino}-3-m-tolyloxy-propan-2-ol] | 8.9 |
| COc1ccc(CCN(Cc2ccccc2)CC(O)COc2cccc(C(F)(F)F)c2)cc1OC (stereo not drawn) [Example 20, 1-{Benzyl-[2-(3,4-dimethoxyphenyl)-ethyl]-amino}-3-(3-trifluoromethylphenoxy)-propan-2-ol] | 11.5 |
| COc1ccc(CCN(C)CC(O)COc2ccc(C3CCCCC3)cc2C)cc1OC (stereo not drawn) [Example 24, 1-(4-Cyclohexyl-2-methylphenoxy)-3-{[2-(3,4-dimethoxyphenyl)-ethyl]-methylamino}-propan-2-ol] | 8.1 |
